# Measurements as given in PubChem BioAssay AID2675 (National Center for Advancing Translational Sciences (NCATS), 2010).
# In all, about 280,000 compounds went through this assay and about 100 (0.036%) were called active. Inconclusive means that the source gave no clear call. Such entries were picked first, then a sample of the others. The call rests on the fitted dose curve; in most records, active means well fitted inhibition curve with a large enough effect in the signal ratio, with a control signal flat (not every such curve was filed as active); inconclusive means small, poorly fitted or top-dose-only effect, or effect the other way, or a change in a side signal; inactive means no such curve, though single readings can be large or run the other way; the % refers to the signal ratio. Potencies beside an inconclusive call are fits to weak or partial responses and may not hold up. “Side channel” marks fits to a control or component signal instead of the main read-out.
# Target: Muscleblind-like protein 1 (Homo sapiens) (UniProt Q9NR56)
# Chain of UniProt Q9NR56 (Q9NR56 whole entry, looked up): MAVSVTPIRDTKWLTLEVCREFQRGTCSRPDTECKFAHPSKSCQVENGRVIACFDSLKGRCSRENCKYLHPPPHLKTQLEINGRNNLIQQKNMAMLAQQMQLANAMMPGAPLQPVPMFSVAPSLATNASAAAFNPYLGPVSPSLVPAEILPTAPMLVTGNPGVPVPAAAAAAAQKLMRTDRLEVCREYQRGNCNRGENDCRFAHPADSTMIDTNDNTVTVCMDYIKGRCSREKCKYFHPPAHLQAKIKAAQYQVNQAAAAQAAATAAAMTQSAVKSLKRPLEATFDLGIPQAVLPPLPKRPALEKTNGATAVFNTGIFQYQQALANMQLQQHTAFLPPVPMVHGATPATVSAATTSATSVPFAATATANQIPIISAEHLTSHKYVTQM
# Experiment: qHTS Assay for Inhibitors of MBNL1-poly(CUG) RNA binding
# Conditions: TR-FRET MBNL1-His/biotin-(CUG)12 binding, 665/545 ratio; activity change, negative = inhibition: at 57.5 µM (top of the series)
# Method in brief: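 His-tagged MBNL1 binding to biotinylated (CUG)12 RNA was measured by TR-FRET using terbium anti-His antibody (0.055 ng/ul final) and streptavidin-XL665 (5 nM final). Compounds were titrated 92 nM to 58 uM; 60 min at room temperature.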
# On the % scale 0 is the no-effect control and ±100 the full control effect; potency means the concentration at half of the fitted maximal effect; tags describe the fitted curve by direction and shape or compound fluorescence and quenching.
SMILES,Potency,"activity change, negative = inhibition"
CCOc1ccc(NC2OC(CO)C(O)C(O)C2O)c([N+](=O)[O-])c1 (stereo not drawn),"inconclusive: 12.6 µM [quencher, side channel, partial curve]",–
Cc1ccc2cc(CN(Cc3ccco3)S(=O)(=O)c3c(C)ccc4nsnc34)c(=O)[nH]c2c1,"inconclusive: 7.08 µM [quencher, side channel, partial curve]",–
CC1CCN(C2=C(NS(=O)(=O)c3ccccc3)C(=O)c3ccccc3C2=O)CC1,"inconclusive: 17.8 µM [quencher, side channel, partial curve]",–
O=S(=O)(c1ccc(Cl)cc1)N1CCN(C2CCCCCC2)CC1,"inconclusive: 5.01 µM [quencher, side channel, single point]",–
O=C(O)c1ccc(NC2=C/C(=N/S(=O)(=O)c3ccccc3)c3ccccc3C2=O)cc1,"inconclusive: 25.1 µM [quencher, side channel, partial curve]",–
Cc1cs/c(=N/C(=S)Nc2ccccc2)n1C,inactive,–
Nc1[nH]nc2nc3ccccc3cc12,"inconclusive: 17.8 µM [quencher, side channel, partial curve]",–
CCC(=O)c1ccc(OCC(=O)O)cc1,inactive,–
CC(C)NC(=O)COC(=O)c1cncc(Br)c1,inactive,–
Nc1ccc(C(=O)O)c(O)c1,"inconclusive: 0.158 µM [inhibitor, full curve, poor fit]",–
CC1CC(C)CN(C(=O)CSCC(=O)Nc2nc(-c3cccs3)cs2)C1 (stereo not drawn),"inconclusive: 20 µM [quencher, side channel, single point]",–
COc1ccc(-c2ccc(=O)n(Cc3ccc([N+](=O)[O-])cc3)n2)cc1,"inconclusive: 10 µM [quencher, side channel, partial curve]",–
COCCNc1nc2c(S(=O)(=O)c3cc(C)ccc3C)nnn2c2ccccc12,"inconclusive: 3.98 µM [fluorescent, side channel, full curve, poor fit]",–
CCN(Cc1ccccc1)S(=O)(=O)c1ccc(C(=O)N2CCN(c3nc4ccccc4s3)CC2)cc1,inactive,–
Cc1ccc(/C=C/c2nc3ccccc3[nH]2)o1,"inconclusive: 31.6 µM [quencher, side channel, single point]",–
COCCn1c(C)cc(C(=O)COc2cccnc2[N+](=O)[O-])c1C,"inconclusive: 25.1 µM [quencher, single point]",–
O=c1c(Cl)c(N2CCOCC2)cnn1-c1nc2ccccc2[nH]1,"inconclusive: 22.4 µM [quencher, side channel, partial curve]",–
O=C(N/N=C/c1cc2c(cc1Cl)OCO2)c1ccncc1,"inconclusive: 5.62 µM [quencher, side channel, single point]",–
CCNC(=O)COC(=O)/C=C/c1cccs1,"inconclusive: 12.6 µM [quencher, side channel, partial curve]",–
O=C(c1ccc(F)cc1)C1CCN(CCn2c(=S)[nH]c3ccccc3c2=O)CC1,"inconclusive: 35.5 µM [fluorescent, side channel, single point]",–

SMILES,Potency,"activity change, negative = inhibition"
COc1cccc2c1NC(C(=O)O)C1CC=CC21 (stereo not drawn),"inconclusive: 11.2 µM [quencher, side channel, single point]",–
Cc1cc(-c2ccccc2)c2ccc(NC(=O)C(C)(C)C)nc2n1,"inconclusive: 39.8 µM [fluorescent, single point]",–
CCOc1cc2c(cc1OC)C(c1cccc([N+](=O)[O-])c1)NCC2 (stereo not drawn),"inconclusive: 12.6 µM [quencher, side channel, partial curve]",–
CO/N=C(\c1nonc1N)N1CCN(c2ccc([N+](=O)[O-])cc2Cl)CC1,"inconclusive: 20 µM [quencher, side channel, single point]",–
CC1CC(C)CN(C(=O)c2cc3c(=O)n4ccccc4nc3s2)C1 (stereo not drawn),"inconclusive: 14.1 µM [quencher, side channel, partial curve]",–
Cc1nn(C)c(C)c1Nc1ccc(N2C(=O)C3CC=CCC3C2=O)cc1[N+](=O)[O-] (stereo not drawn),"inconclusive: 20 µM [quencher, side channel, partial curve]",–
Nc1c(C(=O)OCC(=O)Nc2ccc(Cl)cc2[N+](=O)[O-])[nH]c(=O)[nH]c1=O,"inconclusive: 11.2 µM [quencher, side channel, partial curve]",–
C=CCOc1ccc(C2C(C(=O)c3ccco3)=C(O)C(=O)N2c2nnc(C)s2)cc1 (stereo not drawn),"inconclusive: 14.1 µM [quencher, partial curve]",–
CCCCOc1ccccc1Cn1c(=O)oc2ccccc21,inactive,–
Cc1ccc(-c2ccc(/C=N\NC(=O)c3cc4c(ccc5ccccc54)o3)o2)cc1[N+](=O)[O-],inactive,–
CNC(=S)N(Cc1ccc(OC)cc1)C1CC(=O)N(c2ccc(OC)cc2)C1=O (stereo not drawn),"inconclusive: 10 µM [quencher, side channel, partial curve]",–
CCn1c(Cc2ccc(OC)cc2)nnc1SCC(=O)Nc1cccc(C(=O)OC)c1,"inconclusive: 126 µM [inhibitor, partial curve]",–
O=C(/C(=C(\[O-])c1ccccc1)[n+]1ccc2ccccc2c1)c1ccc(Cl)cc1,–,inconclusive: -17.3% [phenotype inactive]
CCC(C)NC(=O)CCS(=O)(=O)c1ccc2c(c1)n(C)c(=O)c(=O)n2C (stereo not drawn),"inconclusive: 22.4 µM [quencher, side channel, partial curve, poor fit]",–
O=c1cc(-c2ccccc2)c2c(O)cc(O)cc2o1,"inconclusive: 35.5 µM [quencher, side channel, single point]",–
COc1ccccc1OC(=O)c1cc2ccccc2oc1=O,"inconclusive: 17.8 µM [quencher, side channel, partial curve]",–
O=C(CNS(=O)(=O)c1ccccc1)NCc1ccccn1,"inconclusive: 0.141 µM [quencher, side channel, full curve, poor fit]",–
COCCNC(=O)C(=O)c1cc(C)n(-c2ccc([N+](=O)[O-])cc2)c1C,"inconclusive: 31.6 µM [quencher, side channel, single point]",–
NC(=O)CSc1nnc(-c2ccccc2F)n1C1CC1,inactive,–
O=C(CSCc1ccc([N+](=O)[O-])cc1)Nc1ccccc1C(=O)O,"inconclusive: 31.6 µM [quencher, side channel, single point]",–

SMILES,Potency,"activity change, negative = inhibition"
COc1ccccc1-c1cc(C(=O)N/N=C/c2ccc(C)o2)c2ccccc2n1,"inconclusive: 17.8 µM [quencher, side channel, partial curve]",–
O=C(c1cccc([N+](=O)[O-])c1)N1CCCC(C(=O)N2CCN(c3ccccc3)CC2)C1 (stereo not drawn),"inconclusive: 20 µM [quencher, side channel, partial curve]",–
O=C1c2oc3ccc(Cl)cc3c(=O)c2C(c2cccc(Br)c2)N1CCO (stereo not drawn),"inconclusive: 15.8 µM [quencher, side channel, partial curve]",–
CCCOc1ccc(CCc2n[nH]c(=S)n2-c2ccccc2)cc1,inactive,–
O=C(Nc1nc2c(s1)CCCC2)c1cc(-c2ccc3c(c2)OCO3)nc2ccccc12,"inconclusive: 17.8 µM [fluorescent, side channel, partial curve]",–
CCCCN1/C(=C/c2cccc[n+]2C)Sc2cc(NC(C)=O)ccc21,"inconclusive: 28.2 µM [quencher, side channel, partial curve]",–
CCn1c(CCCOc2ccc(Cl)cc2Cl)nnc1SCC(=O)Nc1cc(F)ccc1C,"inconclusive: 0.891 µM [fluorescent, side channel, partial curve]",–
Cc1cc(N=Nc2ccc(C)c(N=Nc3cc(C)c(N)cc3N)c2)c(N)cc1N,"inconclusive: 6.31 µM [quencher, side channel, partial curve]",–
N#C/C(=C\c1cccc([N+](=O)[O-])c1)C(=O)NCc1cccnc1,inactive,–
COc1ccc(NC(=O)c2cccs2)c([N+](=O)[O-])c1,"inconclusive: 7.94 µM [quencher, side channel, partial curve]",–
COc1ccccc1N1CCN(C(=O)c2ccc(N3CCCC3=O)cc2)CC1,"inconclusive: 39.8 µM [inhibitor, single point]",–
CC(C(=O)Nc1ccc(C(=O)O)c(O)c1)N1C(=O)/C(=C\c2ccco2)SC1=S (stereo not drawn),"inconclusive: 39.8 µM [quencher, side channel, partial curve]",–
O=C(Cn1cncn1)NCc1ccc(Cl)cc1,"inconclusive: 39.8 µM [quencher, side channel, single point]",–
CN(C)S(=O)(=O)c1cc([N+](=O)[O-])ccc1N1CCCCCC1,"inconclusive: 28.2 µM [quencher, side channel, partial curve]",–
COc1cc(/C=N/NC(=O)c2ccc3c(c2)OCO3)ccc1O,"inconclusive: 11.2 µM [quencher, side channel, partial curve]",–
COc1cc2c(cc1NC(=O)c1cccc([N+](=O)[O-])c1)oc1ccccc12,"inconclusive: 39.8 µM [quencher, side channel, single point]",–
CC(=O)c1cc(C#N)c(NCc2ccccc2)nc1C,inactive,–
CCOC(=O)c1oc2ccccc2c1NC(=O)c1ccc(Cl)s1,"inconclusive: 1 µM [quencher, side channel, full curve, poor fit]",–
